# Results reported in the supplement of paper PMC8728848.
# The list shows a part of the results.
# B1: GNAT (Pseudomonas aeruginosa), Q9HV14 (protein)
# chain: MQLSHRPAETGDLETVAGFPQDRDELFYCYPKAIWPFSVAQLAAAIAERRGSTVAVHDGQVLGFANFYQWQHGDFCALGNMMVAPAARGLGVARYLIGVMENLAREQYKARLMKISCFNANAAGLLLYTQLGYQPRAIAERHDPDGRRVALIQMDKPLEP
# Columns and labels:
# Assay in all cases: glycan array binding signal (z-score within array); higher = stronger binding
# Details in all cases: glycan notation: IUPAC condensed, linker removed
# [1] = biological target: Fuc(a1-3)[Gal(b1-4)]GlcNAc(b1-2)Man(a1-3)[Fuc(a1-3)[Gal(b1-4)]GlcNAc(b1-2)Man(a1-6)]Man(b1-4)GlcNAc(b1-4)[Fuc(a1-6)]GlcNAc
# In short: (§1)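 Negative Z-scores can be read as non-binding. The Z-score is calculated within each array and then averaged across arrays of one protein sequence at different concentrations or buffers and across linkers. Arrays, 3228 in all, were curated from the Consortium for Functional Glycomics database and kept only where the protein sequence was available.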
# [2] = biological target: Fuc(a1-3)[Gal(b1-4)]GlcNAc(b1-3)Gal(b1-3)[Fuc(a1-4)]GlcNAc
# In short: as §1
# [3] = biological target: Fuc(a1-3)[Gal(b1-4)]GlcNAc(b1-3)GalNAc
# In short: as §1
# [4] = biological target: Fuc(a1-3)[Gal(b1-4)]GlcNAc(b1-4)Gal(b1-4)[Fuc(a1-3)]GlcNAc
# In short: as §1
# [5] = biological target: Fuc(a1-3)[Gal(b1-4)]GlcNAc(b1-4)Gal(b1-4)[Fuc(a1-3)]GlcNAc(b1-4)Gal(b1-4)[Fuc(a1-3)]GlcNAc
# In short: as §1
# [6] = biological target: Fuc(a1-3)[Gal(b1-4)]GlcNAc(b1-6)GalNAc
# In short: as §1
# [7] = biological target: Fuc(a1-3)[Gal(b1-4)]GlcNAc(b1-6)[Gal(b1-3)GlcNAc(b1-3)]Gal(b1-4)Glc
# In short: as §1
# [8] = biological target: Fuc(a1-3)[Gal(b1-4)]GlcNAc(b1-6)[Neu5Ac(a2-3)Gal(b1-3)]GalNAc
# In short: as §1
# [9] = biological target: Fuc(a1-3)[Gal(b1-4)]GlcNAc6S
# In short: as §1
# [10] = biological target: Fuc(a1-3)[Gal3S(b1-4)]GlcNAc
# In short: as §1
# [11] = biological target: Fuc(a1-3)[Gal3S(b1-4)]GlcNAc6S
# In short: as §1
# [12] = biological target: Fuc(a1-3)[GalNAc(b1-4)]GlcNAc
# In short: as §1
# Fuc(a1-4)GlcNAc = biological target: Fuc(a1-4)GlcNAc
# In short: as §1
# Fuc(b1-3)GlcNAc = biological target: Fuc(b1-3)GlcNAc
# In short: as §1
# Gal(a1-2)Gal = biological target: Gal(a1-2)Gal
# In short: as §1
# Gal(a1-3)Gal = biological target: Gal(a1-3)Gal
# In short: as §1
# Gal(a1-3)Gal(b1-3)GlcNAc = biological target: Gal(a1-3)Gal(b1-3)GlcNAc
# In short: as §1
# [13] = biological target: Gal(a1-3)Gal(b1-3)GlcNAc(b1-2)Man(a1-3)[Gal(a1-3)Gal(b1-3)GlcNAc(b1-2)Man(a1-6)]Man(b1-4)GlcNAc(b1-4)GlcNAc
# In short: as §1
# [14] = biological target: Gal(a1-3)Gal(b1-3)GlcNAc(b1-3)GalNAc
# In short: as §1
# [15] = biological target: Gal(a1-3)Gal(b1-3)[Fuc(a1-4)]GlcNAc(b1-2)Man(a1-3)[Gal(a1-3)Gal(b1-3)[Fuc(a1-4)]GlcNAc(b1-2)Man(a1-6)]Man(b1-4)GlcNAc(b1-4)GlcNAc
# In short: as §1
# Gal(a1-3)Gal(b1-4)Glc = biological target: Gal(a1-3)Gal(b1-4)Glc
# In short: as §1
# Gal(a1-3)Gal(b1-4)GlcNAc = biological target: Gal(a1-3)Gal(b1-4)GlcNAc
# In short: as §1
# [16] = biological target: Gal(a1-3)Gal(b1-4)GlcNAc(b1-3)GalNAc
# In short: as §1
# [17] = biological target: Gal(a1-3)Gal(b1-4)[Fuc(a1-3)]GlcNAc
# In short: as §1
# [18] = biological target: Gal(a1-3)Gal(b1-4)[Fuc(a1-3)]GlcNAc(b1-2)Man(a1-3)[Gal(a1-3)Gal(b1-4)[Fuc(a1-3)]GlcNAc(b1-2)Man(a1-6)]Man(b1-4)GlcNAc(b1-4)GlcNAc
# In short: as §1
# Gal(a1-3)GalNAc = biological target: Gal(a1-3)GalNAc
# In short: as §1
# [19] = biological target: Gal(a1-3)[Gal(a1-4)]Gal(b1-4)GlcNAc
# In short: as §1
# [20] = biological target: Gal(a1-4)Gal(b1-3)GlcNAc(b1-2)Man(a1-3)[Gal(a1-4)Gal(b1-3)GlcNAc(b1-2)Man(a1-6)]Man(b1-4)GlcNAc(b1-4)GlcNAc
# In short: as §1
# Gal(a1-4)Gal(b1-4)Glc = biological target: Gal(a1-4)Gal(b1-4)Glc
# In short: as §1
# Gal(a1-4)Gal(b1-4)GlcNAc = biological target: Gal(a1-4)Gal(b1-4)GlcNAc
# In short: as §1
# [21] = biological target: Gal(a1-4)Gal(b1-4)GlcNAc(b1-2)Man(a1-3)[Gal(a1-4)Gal(b1-4)GlcNAc(b1-2)Man(a1-6)]Man(b1-4)GlcNAc(b1-4)GlcNAc
# In short: as §1
# [22] = biological target: Gal(a1-4)Gal(b1-4)GlcNAc(b1-3)Gal(b1-4)Glc
# In short: as §1
# Gal(a1-4)GlcNAc = biological target: Gal(a1-4)GlcNAc
# In short: as §1
# Gal(a1-6)Glc = biological target: Gal(a1-6)Glc
# In short: as §1
# Gal(b1-2)Gal = biological target: Gal(b1-2)Gal
# In short: as §1
# Gal(b1-3)Gal = biological target: Gal(b1-3)Gal
# In short: as §1
# Gal(b1-3)Gal(b1-4)GlcNAc = biological target: Gal(b1-3)Gal(b1-4)GlcNAc
# In short: as §1
# [23] = biological target: Gal(b1-3)Gal(b1-4)GlcNAc(b1-2)Man(a1-3)[Gal(b1-3)Gal(b1-4)GlcNAc(b1-2)Man(a1-6)]Man(b1-4)GlcNAc(b1-4)GlcNAc
# In short: as §1
# Gal(b1-3)GalNAc = biological target: Gal(b1-3)GalNAc
# In short: as §1
# [24] = biological target: Gal(b1-3)GalNAc(a1-3)[Fuc(a1-2)]Gal(b1-4)Glc
# In short: as §1
# [25] = biological target: Gal(b1-3)GalNAc(a1-3)[Fuc(a1-2)]Gal(b1-4)GlcNAc
# In short: as §1
# [26] = biological target: Gal(b1-3)GalNAc(b1-3)Gal(a1-4)Gal(b1-4)Glc
# In short: as §1
# [27] = biological target: Gal(b1-3)GalNAc(b1-4)Gal(b1-4)Glc
# In short: as §1
# [28] = biological target: Gal(b1-3)GalNAc(b1-4)[Neu5Ac(a2-3)]Gal(b1-4)Glc
# In short: as §1
# Gal(b1-3)GlcNAc = biological target: Gal(b1-3)GlcNAc
# In short: as §1
binder,measurement,setting,value
B1,glycan array binding signal (z-score),[1],1.09
same,glycan array binding signal (z-score),[2],-0.27
same,glycan array binding signal (z-score),[3],2.09
same,glycan array binding signal (z-score),[4],-0.155
same,glycan array binding signal (z-score),[5],-0.48
same,glycan array binding signal (z-score),[6],5.07
same,glycan array binding signal (z-score),[7],-0.3
same,glycan array binding signal (z-score),[8],1.49
same,glycan array binding signal (z-score),[9],-0.123
same,glycan array binding signal (z-score),[10],-0.328
same,glycan array binding signal (z-score),[11],0.423
same,glycan array binding signal (z-score),[12],-0.408
same,glycan array binding signal (z-score),Fuc(a1-4)GlcNAc,-0.508
same,glycan array binding signal (z-score),Fuc(b1-3)GlcNAc,-0.481
same,glycan array binding signal (z-score),Gal(a1-2)Gal,-0.302
same,glycan array binding signal (z-score),Gal(a1-3)Gal,-0.415
same,glycan array binding signal (z-score),Gal(a1-3)Gal(b1-3)GlcNAc,-0.371
same,glycan array binding signal (z-score),[13],2.69
same,glycan array binding signal (z-score),[14],-0.26
same,glycan array binding signal (z-score),[15],0.451
same,glycan array binding signal (z-score),Gal(a1-3)Gal(b1-4)Glc,-0.248
same,glycan array binding signal (z-score),Gal(a1-3)Gal(b1-4)GlcNAc,-0.174
same,glycan array binding signal (z-score),[16],-0.128
same,glycan array binding signal (z-score),[17],0.224
same,glycan array binding signal (z-score),[18],4.4
same,glycan array binding signal (z-score),Gal(a1-3)GalNAc,-0.372
same,glycan array binding signal (z-score),[19],-0.167
same,glycan array binding signal (z-score),[20],1.08
same,glycan array binding signal (z-score),Gal(a1-4)Gal(b1-4)Glc,1.23
same,glycan array binding signal (z-score),Gal(a1-4)Gal(b1-4)GlcNAc,-0.159
same,glycan array binding signal (z-score),[21],0.997
same,glycan array binding signal (z-score),[22],2.37
same,glycan array binding signal (z-score),Gal(a1-4)GlcNAc,0.374
same,glycan array binding signal (z-score),Gal(a1-6)Glc,-0.211
same,glycan array binding signal (z-score),Gal(b1-2)Gal,-0.324
same,glycan array binding signal (z-score),Gal(b1-3)Gal,-0.184
same,glycan array binding signal (z-score),Gal(b1-3)Gal(b1-4)GlcNAc,-0.085
same,glycan array binding signal (z-score),[23],-0.334
same,glycan array binding signal (z-score),Gal(b1-3)GalNAc,-0.167
same,glycan array binding signal (z-score),[24],-0.364
same,glycan array binding signal (z-score),[25],-0.166
same,glycan array binding signal (z-score),[26],-0.366
same,glycan array binding signal (z-score),[27],-0.016
same,glycan array binding signal (z-score),[28],0.136
same,glycan array binding signal (z-score),Gal(b1-3)GlcNAc,0.027
